Measured values from PMC4207660, “Identification and Characterization of Hundreds of Potent and Selective Inhibitors of Trypanosoma brucei Growth from a Kinase-Targeted Library Screening Campaign” (PLoS Neglected Tropical Diseases, 2014).

How the values were obtained:
[1] = ChromlogD assay; details: pH 7.4
Protocol: The Chromatographic Hydrophobicity Index (CHI)[22] values were measured using reversed phase HPLC column (Luna C18 (2), Phenomenex, UK) with a fast acetonitrile gradient at starting mobile phase of pH = 7.4. CHI values are derived directly from the gradient retention times by using a calibration line obtained for standard compounds. The CHI value approximates to the volume % organic concentration when the compound elutes. […] The average error of the assay is ±3 CHI unit or ±0.25 ChromlogD.

[2] = system: T. brucei brucei parasites (Lister 427 strain); assay: Dose response growth inhibition assay (resazurin, 72 h); format: cell-based; details: Trypanosoma brucei, 72 h; read-out: pEC50 (converted)
Protocol: Greiner sterile black clear bottom 384-well assay plates were pre-dispensing with 200 nL of compound in each well, from master plates at 1 mM (100% DMSO) containing selection from the GSK compound collection. Controls of 0% response (control 1, 200 nL of 100%DMSO) and 100% response (control 2, 200 nL of 1 mM pentamidine) were included in each assay plate in columns 6 and 18, respectively. Plates containing 200 nL of 100% DMSO were included randomly in the assay, to assess quality through all process. […] After this period, 10 µL of 200 µM resazurin solution in prewarmed HMI-9 were added to each well, and plates were allowed to incubate 2 hours more prior fluorescence reading in a Wallac EnVision Multilabel Plate Reader (Perkin-Elmer). Raw fluorescent data from the Envision plate reader were uploaded into GSK HTS database (ActivityBase). Activity of each well was normalized as a percentage of inhibition per-plate basis using the following equation: [drawing 1]
For dose-response experiments, serial compound dilutions of selected hits from the primary campaign were plotted against compound concentration. Dose response master plates were prepared by 3-fold dilutions (starting with 10 mM DMSO stock solutions), providing 11 concentrations. From these master plates, 200 nL per well was stamped in final assay plates, including the same controls describe in the primary single shot assay. […]

[3] = system: T. brucei; format: cell-based, Trypanosoma brucei brucei
Protocol: 100 nL per well from master plates were stamped in final assay black, clear-bottom 384-well Greiner microplates, including controls of 0% response (DMSO) and 100% response (2 μM Pentamidine): the final assay concentration was 20 μM. Plates containing DMSO were included randomly in the assay, to assess quality through all process. […] After 18 hours incubation, plates were centrifuged in a centrifuge (Beckman Coulter) for 5 min at 500 g, to sediment the cells, supernatant was aspirated with a Cybio-Well dispenser (Cybio), and 40 μL/well of fresh prewarmed HMI-9 were added: this cycle was performed three times. After the last cycle, 10 μL/well of cells suspension were aspirated by Cybio-Well equipment and dispensed over 40 μL of fresh prewarmed HMI-9 in “recovery plates”: calculated maximal residual concentration was 32 nM. […] Assay […] quality was determined by Z' score and validated data set were analyzed with ActivityBase software. As previous described percentage of inhibition was calculate for each concentration based on controls. A 4-parameter equation was used to fit the dose-response curves and pEC50 determination. The potential effect of residual drug remaining after washes was evaluated by performing the same protocol with standard trypanocidal drugs (such as suramin and diminazene) and negligible effect was observed. […]

[4] = system: HepG2 cells; assay: Cytotoxicity assay (Cell Titer Glo, 48 h); details: HepG2 cells, 48 h
Protocol: This assay was used as selectivity assay, and selected hits from the primary were test in dose response concentration against HepG2 in order to identify the level of host cell cytotoxicity. Dose response starting at 10 mM and with 3-fold dilutions for 11 points, were made in 1,536-well master plates. 50 nL per well from them were stamped in final assay plates. The human biological samples were sourced ethically and their research use was in accord with the terms of informed consent.
Cell density was adjusted to 60,000 cells/mL as working concentration in prewarmed Eagle's MEM medium. Seeding density was be checked to ensure that new monolayers are not more than ∼ 50% confluent at the time of seeding (typically 3,000 cells per well), before completing preparation of plates. […] Viability was determined by Cell Titer Glo Kit (Promega) according to manufacturer's instructions: briefly, reconstituted Cell Titer Buffer was equilibrated to room temperature prior its use and 5 µL per well were dispensed with a Multidrop Combi Reagent Dispenser. Contents were mixed on a plate orbital shaker and incubated for 10 min at room temperature, to allow the signal to stabilize before luminescence reading on ViewLux Plate Reader (Perkin-Elmer).
Raw Luminescence data from the ViewLux reader were uploaded into GSK HTS database (ActivityBase). […]

[5] = reversed-phase HPLC column (Luna C18 (2))

SMILES | logD [1] | EC50 [2] [nM] | Cidal? [3] | logD [1, 5] | pTC50 [4]
CN[C@@H]1C[C@H]2O[C@@](C)([C@@H]1OC)n1c3ccccc3c3c4c(c5c6ccccc6n2c5c31)C(=O)NC4 [NEU-0001095] | 3.13 | – | – | – | –
O=c1nc(-c2ccccc2)c2cc(-c3ccncc3)ccc2[nH]1 [NEU-0001101] | – | 832 | N (No) | 3.86 | –
O=C(Nc1ccncc1)c1ccc([N+](=O)[O-])o1 [NEU-0001094] | – | 562 | N (No) | 1.64 | 4.23
